# Paper PMC9911399, “Two distinct binding modes provide the RNA-binding protein RbFox with extraordinary sequence specificity”
# Where a chain is given by its changes, count along the chain named. This is one part of the list.
# T1: RBFOX1 RRM (Homo sapiens, UniProt Q9NWB1 109-208)
# T1 sequence: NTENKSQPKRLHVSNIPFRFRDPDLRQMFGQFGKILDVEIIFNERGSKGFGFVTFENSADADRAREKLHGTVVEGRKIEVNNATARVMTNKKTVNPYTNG
# B1: GUUCAUA (DNA:RNA)
# RNA: GGGAGACCGGAAUUCAGAUUGUCCGUUCAUAUUAAAUCCCGUCGUAGCCACCA
# DNA 1: CAATCTGAATTCCGGTCTCCC
# DNA 2: TGGTGGCTACGACGGGATT
# B2: UAUGUCG (DNA:RNA)
# RNA: B1 RNA with G25U, U26A, C28G, A29U, U30C, A31G
# DNA 1: CAATCTGAATTCCGGTCTCCC
# DNA 2: TGGTGGCTACGACGGGATT
# B3: GGCUUAG (DNA:RNA)
# RNA: B1 RNA with U26G, U27C, C28U, A29U, U30A, A31G
# DNA 1: CAATCTGAATTCCGGTCTCCC
# DNA 2: TGGTGGCTACGACGGGATT
# B4: UCAAAAU (DNA:RNA)
# RNA: B1 RNA with G25U, U26C, U27A, C28A, U30A, A31U
# DNA 1: CAATCTGAATTCCGGTCTCCC
# DNA 2: TGGTGGCTACGACGGGATT
# B5: GAAAGUA (DNA:RNA)
# RNA: B1 RNA with U26A, U27A, C28A, A29G
# DNA 1: CAATCTGAATTCCGGTCTCCC
# DNA 2: TGGTGGCTACGACGGGATT
# B6: AUCCGGG (DNA:RNA)
# RNA: B1 RNA with G25A, U27C, A29G, U30G, A31G
# DNA 1: CAATCTGAATTCCGGTCTCCC
# DNA 2: TGGTGGCTACGACGGGATT
# B7: UGACCCC (DNA:RNA)
# RNA: B1 RNA with G25U, U26G, U27A, A29C, U30C, A31C
# DNA 1: CAATCTGAATTCCGGTCTCCC
# DNA 2: TGGTGGCTACGACGGGATT
# B8: UGGGUAA (DNA:RNA)
# RNA: B1 RNA with G25U, U26G, U27G, C28G, A29U, U30A
# DNA 1: CAATCTGAATTCCGGTCTCCC
# DNA 2: TGGTGGCTACGACGGGATT
# B9: CUAAGCC (DNA:RNA)
# RNA: B1 RNA with G25C, U27A, C28A, A29G, U30C, A31C
# DNA 1: CAATCTGAATTCCGGTCTCCC
# DNA 2: TGGTGGCTACGACGGGATT
# B10: CCAGAAG (DNA:RNA)
# RNA: B1 RNA with G25C, U26C, U27A, C28G, U30A, A31G
# DNA 1: CAATCTGAATTCCGGTCTCCC
# DNA 2: TGGTGGCTACGACGGGATT
# B11: CUCAAAA (DNA:RNA)
# RNA: B1 RNA with G25C, U27C, C28A, U30A
# DNA 1: CAATCTGAATTCCGGTCTCCC
# DNA 2: TGGTGGCTACGACGGGATT
# B12: CGACCGA (DNA:RNA)
# RNA: B1 RNA with G25C, U26G, U27A, A29C, U30G
# DNA 1: CAATCTGAATTCCGGTCTCCC
# DNA 2: TGGTGGCTACGACGGGATT
# B13: UAGGGUG (DNA:RNA)
# RNA: B1 RNA with G25U, U26A, U27G, C28G, A29G, A31G
# DNA 1: CAATCTGAATTCCGGTCTCCC
# DNA 2: TGGTGGCTACGACGGGATT
# B14: UACCCAC (DNA:RNA)
# RNA: B1 RNA with G25U, U26A, U27C, A29C, U30A, A31C
# DNA 1: CAATCTGAATTCCGGTCTCCC
# DNA 2: TGGTGGCTACGACGGGATT
# B15: UGGUUCU (DNA:RNA)
# RNA: GGGAGACCGGAAUUCAGAUUGUCCUGGUUCUUUAAAUCCCGUCGUAGCCACCA
# DNA 1: CAATCTGAATTCCGGTCTCCC
# DNA 2: TGGTGGCTACGACGGGATT
# B16: CAUAGAA (DNA:RNA)
# RNA: B1 RNA with G25C, U26A, C28A, A29G, U30A
# DNA 1: CAATCTGAATTCCGGTCTCCC
# DNA 2: TGGTGGCTACGACGGGATT
# B17: GAUAGCA (DNA:RNA)
# RNA: B1 RNA with U26A, C28A, A29G, U30C
# DNA 1: CAATCTGAATTCCGGTCTCCC
# DNA 2: TGGTGGCTACGACGGGATT
# B18: CUUAGAU (DNA:RNA)
# RNA: B1 RNA with G25C, C28A, A29G, U30A, A31U
# DNA 1: CAATCTGAATTCCGGTCTCCC
# DNA 2: TGGTGGCTACGACGGGATT
# B19: GGUGCCG (DNA:RNA)
# RNA: B1 RNA with U26G, C28G, A29C, U30C, A31G
# DNA 1: CAATCTGAATTCCGGTCTCCC
# DNA 2: TGGTGGCTACGACGGGATT
# B20: AAUCUGG (DNA:RNA)
# RNA: B1 RNA with G25A, U26A, A29U, U30G, A31G
# DNA 1: CAATCTGAATTCCGGTCTCCC
# DNA 2: TGGTGGCTACGACGGGATT
# B21: UACCAGA (DNA:RNA)
# RNA: B1 RNA with G25U, U26A, U27C, U30G
# DNA 1: CAATCTGAATTCCGGTCTCCC
# DNA 2: TGGTGGCTACGACGGGATT
# B22: CUGGUUA (DNA:RNA)
# RNA: B1 RNA with G25C, U27G, C28G, A29U
# DNA 1: CAATCTGAATTCCGGTCTCCC
# DNA 2: TGGTGGCTACGACGGGATT
# B23: CGAUGAC (DNA:RNA)
# RNA: B15 RNA with U25C, G27A, U29G, C30A, U31C
# DNA 1: CAATCTGAATTCCGGTCTCCC
# DNA 2: TGGTGGCTACGACGGGATT
# B24: CCGCUCG (DNA:RNA)
# RNA: B15 RNA with U25C, G26C, U28C, U31G
# DNA 1: CAATCTGAATTCCGGTCTCCC
# DNA 2: TGGTGGCTACGACGGGATT
# B25: UUCCGUU (DNA:RNA)
# RNA: B1 RNA with G25U, U27C, A29G, A31U
# DNA 1: CAATCTGAATTCCGGTCTCCC
# DNA 2: TGGTGGCTACGACGGGATT
# B26: GGUAAUG (DNA:RNA)
# RNA: B1 RNA with U26G, C28A, A31G
# DNA 1: CAATCTGAATTCCGGTCTCCC
# DNA 2: TGGTGGCTACGACGGGATT
# B27: GGCACGG (DNA:RNA)
# RNA: B1 RNA with U26G, U27C, C28A, A29C, U30G, A31G
# DNA 1: CAATCTGAATTCCGGTCTCCC
# DNA 2: TGGTGGCTACGACGGGATT
# B28: CCCCAAU (DNA:RNA)
# RNA: B1 RNA with G25C, U26C, U27C, U30A, A31U
# DNA 1: CAATCTGAATTCCGGTCTCCC
# DNA 2: TGGTGGCTACGACGGGATT
# B29: UUCCCCU (DNA:RNA)
# RNA: B15 RNA with G26U, G27C, U28C, U29C
# DNA 1: CAATCTGAATTCCGGTCTCCC
# DNA 2: TGGTGGCTACGACGGGATT
# B30: AAACAUU (DNA:RNA)
# RNA: B1 RNA with G25A, U26A, U27A, A31U
# DNA 1: CAATCTGAATTCCGGTCTCCC
# DNA 2: TGGTGGCTACGACGGGATT
# B31: GGUGGGG (DNA:RNA)
# RNA: B1 RNA with U26G, C28G, A29G, U30G, A31G
# DNA 1: CAATCTGAATTCCGGTCTCCC
# DNA 2: TGGTGGCTACGACGGGATT
# Biological target: T1, RBFOX1 RRM
# Experiment: EMSA; HiTS-Eq, 1 nM pool, 10 min; buffer printed only for the single-RNA assays: 10 mM Tris pH 7.5, 150 mM NaCl, 3.4 mM EDTA, 0.001% NP-40, 30 C
# Details: tags: His6 N-terminal (pET28a); label: 5' 32P
# In short: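 These values rest on relative association constants, computed from read-count changes of each RNA species versus the control reaction and normalised to the cognate motif. Reads came from free RNA recovered by 8% native PAGE after purified RbFox RRM (wild type or mutant) at increasing concentrations was equilibrated for 10 min in 50 µL with 1 nM of a 5′-radiolabelled pool with 7 randomized nucleotides and DNA-annealed flanks.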
row,Binder,binding signal
1,B1,0.00309 KA relative to UGCAUGU
2,B2,0.0233 KA relative to UGCAUGU
3,B3,0.00602 KA relative to UGCAUGU
4,B4,0.00169 KA relative to UGCAUGU
5,B5,0.00589 KA relative to UGCAUGU
6,B6,0.00181 KA relative to UGCAUGU
7,B7,0.00755 KA relative to UGCAUGU
8,B8,0.0233 KA relative to UGCAUGU
9,B9,0.00473 KA relative to UGCAUGU
10,B10,0.00547 KA relative to UGCAUGU
11,B11,0.00184 KA relative to UGCAUGU
12,B12,0.0125 KA relative to UGCAUGU
13,B13,0.0191 KA relative to UGCAUGU
14,B14,0.00267 KA relative to UGCAUGU
15,B15,0.019 KA relative to UGCAUGU
16,B16,0.00289 KA relative to UGCAUGU

row,Binder,binding signal
1,B17,0.0148 KA relative to UGCAUGU
2,B18,0.00985 KA relative to UGCAUGU
3,B19,0.0233 KA relative to UGCAUGU
4,B20,0.00873 KA relative to UGCAUGU
5,B21,0.0115 KA relative to UGCAUGU
6,B22,0.0161 KA relative to UGCAUGU
7,B23,0.00699 KA relative to UGCAUGU
8,B24,0.0183 KA relative to UGCAUGU
9,B25,0.00827 KA relative to UGCAUGU
10,B26,0.0152 KA relative to UGCAUGU
11,B27,0.0171 KA relative to UGCAUGU
12,B28,0.00262 KA relative to UGCAUGU
13,B29,0.0043 KA relative to UGCAUGU
14,B30,0.00283 KA relative to UGCAUGU
15,B31,0.0146 KA relative to UGCAUGU
